In paper PMC12136788:
The other results are listed elsewhere or left out.

T1: UNK ZnF1-3 (human, UniProt Q9C0B0 31-174)
T1 sequence: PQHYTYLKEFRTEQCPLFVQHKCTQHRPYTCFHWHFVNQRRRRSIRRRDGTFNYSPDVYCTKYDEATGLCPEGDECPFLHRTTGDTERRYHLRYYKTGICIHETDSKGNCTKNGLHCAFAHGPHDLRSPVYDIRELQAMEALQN

B1: chrX:98480239:98480240:+_ENSMUSG00000079487_ENSMUST00000087948|mus_hu|FALSE|FALSE (ssRNA)
RNA: GGGAGUUCUACAGUCCGACGAUCAGCACAGCGAAUCAGAUCUUCCAGGAGCAAACACUGCCGAGCGAUGAGGAUGGCAACAAAAGUAGCCAGCGAGUCAUGAAAAGAUAGGUCACUGACAUCAACAUUGCAGAGGAGAUCGUUCAACAGAGGAUUGAGCAUCA
B2: chr5:33369694:33369695:+_ENSMUSG00000018965_ENSMUST00000019109|mus_mus|motif|central (ssRNA)
RNA: GGGAGUUCUACAGUCCGACGAUCGGAAUCCUCGUUUAAUGUGUCCAGCUCAGCUAUAGCAUCAUCGAAGGCUUGUUUGGCGGAGAGGCAGGCUUGCUCUGGUGCAUUCUGGAUCUCAUAGUAGAACACAGAAAAAUUGAGGGCCAACAGAGGAUUGAGCAUCA
B3: 108272540_108273305_2378_CDS_ENSG00000163507_ENST00000295746|human|control|control (ssRNA)
RNA: GGGAGUUCUACAGUCCGACGAUCUCUCUGUUCUUCUUUCUCUAUUAAUUGGGCAAUACUUUUUUCAUUUUGUUCCUUGAGUGACUCAUUCAACUUUUUCACUGUCUCAAUUUGUUUAUUCAGAGAAUCACAUGUGAUCUGUAACAACAGAGGAUUGAGCAUCA
B4: 64770575_64770695_352_CDS_ENSMUSG00000059920_ENSMUST00000076991|mouse|control|control (ssRNA)
RNA: GGGAGUUCUACAGUCCGACGAUCAGGCUGCACCAGGCGGUUGGUGACGGUGUCGCAAAGGGCCAUGAUCUCGUCGUUGUCCAGCAGGCCGAGUAGGUUUCGGCAGCCCUCCGACUCUAAGUGGCUGAGCCCCGACAUCUCGCCCAACAGAGGAUUGAGCAUCA
B5: chr10:17279241:17279242:+_ENSG00000026025_ENST00000224237|hu_mus|FALSE|FALSE (ssRNA)
RNA: GGGAGUUCUACAGUCCGACGAUCUUUUUAUUCAAGGUCAUCGUGAUGCUGAGAAGUCUCAUUGAUCACCUGUCCAUCUCUGGUCUCAACCGUCUUAAUCAGGAGUGUUCUUUUUGAGUGGGUGUCAACCAGAGGAAGUGACUCCAACAGAGGAUUGAGCAUCA
B6: chrX:53230792:53230793:-_ENSG00000126012_ENST00000404049|hu_mus|FALSE|FALSE (ssRNA)
RNA: GGGAGUUCUACAGUCCGACGAUCCAACAGAGCCUUUCGUAGACGCCGCUCCUCUUGCACCAUAAUGAACAUCUCCUUAUGUACAGCUGCUGCCAGGUUCAGGUCCAGUUUCUCAGGGCAGGCAGCCAUCUUGCAAAUGAGCUCCAACAGAGGAUUGAGCAUCA

Target: T1, UNK ZnF1-3
Experiment: nsRBNS (natural sequence RNA bind-n-seq); RBNS binding buffer (assumed for nsRBNS): 25 mM Tris pH 7.5, 150 mM KCl, 3 mM MgCl2, 0.01% Triton X-100, 500 ug/ml BSA, 20 U/ml SUPERase-In, 4 C; UNK is unkempt and MSI1 is Musashi-1; names of the RNAs are library labels; protein concentration not given here; high values mean tight binding

| Binder | binding signal [enrichment R] |
| --- | --- |
| B1 | 1.52 |
| B2 | 1.31 |
| B3 | 0.34 |
| B4 | 0.865 |
| B5 | 0.521 |
| B6 | 1.07 |
